From article PMC12040169 (PLOS Biology, 2025)
Some of the results follow.

System: T1, C. trachomatis L2/434/Bu expressing GFP (CTL2-GFP)
T1 construct: L2/434/Bu GFP intracellular growth in HeLa cells
Design: species or system HeLa; C. trachomatis total inclusion area by high-content imaging, normalised to DMSO
Settings: total inclusion area; 28.5 h, 10 µM; inhibitor
Outline: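 Following bulk GFP and resorufin fluorescence reads, infected cells were fixed, Hoechst-stained and imaged on a high-content platform. Inclusion total area and number per well served as growth proxies; nuclei counts indicated host viability. MICs were derived as for the fluorescence assay.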

| SMILES | % of control remaining |
| --- | --- |
| O=c1[nH]c(=O)c2cc(S(=O)(=O)Nc3ccccc3Cc3ccccc3)ccc2[nH]1 [CBK286377] | 93.5016 |
| O=C(CN1CCCCCC1=O)Nc1nc(-c2ccccc2F)cs1 [CBK281408] | 66.1719 |
| COc1ccc(OC(=O)c2csc(Cc3c(Cl)cccc3Cl)n2)cc1 [CBK083573] | 84.7528 |
| CC(C)NC(=O)[C@@H](C)C1CC[C@@]2(C)CC[C@H](NC(=O)C3CC3)[C@@H](C)[C@@H]2[C@H]1O (stereo partly drawn) [CBK289444] | 123.548 |
| Cc1cccn2c(=O)cc(CN3CCC(c4ccn[nH]4)CC3)nc12 [CBK305951] | 65.0471 |
| Cc1cc(N2CCOC(c3cccs3)C2)ccn1 (stereo not drawn) [CBK304691] | 77.7496 |
| O=C1CCc2cc(S(=O)(=O)Nc3cccc(-c4ccc(F)cc4)c3)ccc2N1 [CBK286371] | 95.178 |
| FC(F)(F)c1nc2ccccc2nc1Sc1ccncc1 [CBK093773] | 85.8504 |
| CCOC(=O)c1sc(-c2ccccc2)nc1O [CBK074298] | 102.517 |
| CN1CCC(N(C)C(=O)NC(c2ccccc2)c2ccccc2)C1 (stereo not drawn) [CBK156000] | 90.3803 |
| CN1C=NC2C1C(=O)N(CCn1c(=O)c3c(ncn3C)n(C)c1=O)C(=O)N2C (stereo not drawn) [CBK268678] | 104.653 |
| Cc1[nH]c(=O)[nH]c(=S)c1C(=O)Nc1ccc2[nH]c(C(F)(F)F)nc2c1 [CBK115494] | 76.4537 |
| CCOC(=O)CCNC(=O)N(CC)Cc1ccccc1 [CBK155228] | 91.42 |
| COC(=O)c1cccc(N(C)S(=O)(=O)c2sc3ccc(Cl)cc3c2C)c1 [CBK160390] | 72.1568 |
| CCc1c(C)nc2c(N3CCOC3=O)cccc2c1SCCC(=O)O [CBK159595T] | 106.657 |
| Cc1cccc2c3c([nH]c12)C1(CCN(CC2CC2)C1)NCC3 (stereo not drawn) [CBK039520] | 87.2732 |
| CSCCN1CCC(Oc2nccnc2OCc2cccnc2)CC1 [CBK083173] | 91.6207 |
| CCOC(=O)c1[nH]c(C)c(/C=C/C2=CCN(C)CC2)c1C [CBK283761] | 122.488 |
| CCCC(=O)Nc1ccc(C(=O)O)cc1NC(=O)CCC [CBK286939] | 103.155 |
| CN1CCN(c2ccccc2NC(=S)NC(=O)c2ccco2)CC1 [CBK267909] | 83.9687 |
| CC(=O)c1ccc(CN2CCCN(S(=O)(=O)c3ccc(C(=O)c4ccccc4)cc3)CC2)cc1 [CBK062764] | 69.2456 |
| CN(C(=O)C1CCc2nn(C)c(=O)n2C1)C1Cc2ccccc2C1 (stereo not drawn) [CBK307108] | 100.055 |
| O=C(NCc1nnc(-c2cccs2)o1)C1(c2ccccc2F)CC1 [CBK284637] | 109.109 |
| O=[N+]([O-])c1ccccc1/C=C/CN1CCN(C/C=C/c2ccccc2)CC1 [CBK261864] | 93.3994 |
| O=C(Cc1ccc(-c2ccccc2)cc1)N1CCc2nc3ccccc3c(=O)n2CC1 [CBK286312] | 94.0007 |
| CCn1cc(C(=O)NN)c(=O)c2cc(F)c(N3CCCCCC3)cc21 [CBK307145] | 83.4236 |

| SMILES | % of control remaining |
| --- | --- |
| CC(NC(=O)C1(Cn2ccnc2)CC1)c1cccnc1 (stereo not drawn) [CBK306812] | 55.1999 |
| O=C(c1cccs1)N1C[C@@H]2C[C@H](C1)c1c(-c3cncnc3)ccc(=O)n1C2 [CBK289194] | 96.9992 |
| COc1c(C)cc(-c2[nH]c(C)nc2C)cc1C [CBK306941] | 47.7017 |
| COC(=O)Cc1ccc(NC(=S)Nc2ccc(N3CCOCC3)cc2)cc1 [CBK267211] | 112.889 |
| CC1CCN(c2ccc(C(C)NC(=O)Cn3cccn3)cc2)CC1 (stereo not drawn) [CBK281725] | 103.76 |
| O=C(O)CSc1nnc(-c2ccncc2)n1-c1ccc(Cl)cc1 [CBK266686] | 83.9426 |
| O=S(=O)(c1ccc2nc(-c3ccccc3)c(-c3ccc(O)cc3)nc2c1)c1ccc2nc(-c3ccccc3)c(-c3ccc(O)cc3)nc2c1 [CBK261148] | 70.4511 |
| Cc1ccc2c(c1)C(C[C@H]1CN(C(=O)C3CCCC3)CC[C@H]1CC(=O)O)=NCC2 [CBK289163] | 134.023 |
| CC(=C\C(=O)O)/C(=C/c1ccc2ccccc2n1)C(=O)O [CBK278294N] | 99.0612 |
| Cn1cc(CCNC(=O)Nc2ccc(N3CCCC3)nc2)cn1 [CBK305659] | 76.256 |
| OCCN(CCO)c1cncc(-c2cccs2)n1 [CBK065766] | 122.455 |
| c1cncc(-c2nccnc2N2CCN(c3ccncc3)CC2)c1 [CBK036965] | 142.158 |
| Cc1cc(N2C(=O)c3ccc(Oc4ccc5c(c4)C(=O)N(c4cc(C)on4)C5=O)cc3C2=O)no1 [CBK266463] | 107.587 |
| O=C(NCCn1cccn1)N1CCCN(Cc2ccncc2)CC1 [CBK307129] | 65.0674 |
| O=C(Oc1ccccc1)c1cc(S(=O)(=O)N2CCOCC2)c(Cl)cc1Cl [CBK269656] | 89.3398 |
| COc1cccc(-c2ccc(NC(=O)CCC3C(=O)Nc4ccccc43)cc2)c1 (stereo not drawn) [CBK285851] | 106.54 |
| Cc1nc(C2CCCN(C(=O)c3cscn3)C2)c2sccn12 (stereo not drawn) [CBK282236] | 100.836 |
| C/C(=N/OCC(=O)N/N=C/c1sc2ccccc2c1O)c1ccccc1 [CBK262266] | 88.2599 |
| Cc1nnc(SCC(=O)NC(C)(C)C)n1NCc1cccc(Br)c1 [CBK266517] | 76.4728 |
| O=C(CSc1nnc(Nc2ccccc2)n1-c1ccccc1)Nc1ccc2c(c1)COC2=O [CBK268298] | 138.467 |
| CCOc1ccc2c(c1)-c1c(ssc1=S)C(C)(C)N2C(=O)CSc1nnc[nH]1 [CBK262680] | 76.213 |
| NC(=O)C1CCN(c2ncnc3c2oc2ccccc23)CC1 [CBK287789] | 100.014 |
| COc1cc(C(=O)N2CCC3(CC2)CC(=O)c2ccc(-c4ccccc4)cc2O3)cc(OC)c1C [CBK169037] | 117.698 |
| Cc1ccc(CN(CCCn2ccnc2)Cc2ccncc2)o1 [CBK283101] | 70.7994 |
| Cc1ccc(C)c(C2CCCN2C(=O)Cn2cc(C(=O)NCc3ccccc3)ccc2=O)c1 (stereo not drawn) [CBK286052] | 95.8367 |
| Cc1ccc(C)c(C(=O)C2=C(O)C(=O)N(CCCN3CCOCC3)C2c2ccncc2)c1 (stereo not drawn) [CBK265492] | 111.376 |

| SMILES | % of control remaining |
| --- | --- |
| O=C(c1ccccc1)N1C[C@H](c2ccc(F)cc2)[C@H]2CN(Cc3ccccc3F)CC[C@H]21 [CBK286289] | 101.057 |
| CN1CCN(CCOC(=O)N2CCC(C(F)(F)F)CC2)CC1 [CBK200206] | 94.256 |
| CCc1nc2ccc(C(=O)N3CCN(c4ccccc4)CC3)cn2c1N(C)C(=O)Nc1ccccc1OC [CBK145886] | 133.522 |
| CC1=C(C(=O)Nc2ccc(Cl)cc2Cl)SCCO1 [CBK057784] | 65.2684 |
| OCC1COCCN(c2ncnc3c2CCC3)C1 (stereo not drawn) [CBK304373] | 73.1424 |
| COc1cncc(-c2cc(Nc3cc(OC)c(OC)cc3C)ncn2)c1 [CBK090782] | 83.6747 |
| O=C(COc1ccc2ccccc2c1)Nc1ccc(CN2CCOCC2)cc1 [CBK265754] | 145.776 |
| Cc1ccc2nc(-c3ccncc3)cc(C(=O)N3CCN(c4ncccn4)CC3)c2c1 [CBK267751] | 94.1741 |
| O=C(CSc1nnc(-c2ccc(Cl)cc2Cl)o1)c1cc2ccccc2oc1=O [CBK268698] | 101.846 |
| Cc1cc(Cl)ccc1OCC(O)CN1CCN(Cc2ccc3c(c2)OCO3)CC1 (stereo not drawn) [CBK074383] | 89.288 |
| Cc1ccc(S(=O)(=O)N(C)CC(=O)N(C)Cc2ccccc2)cc1 [CBK264201] | 103.816 |
| O=S(=O)(Nc1nnc(C(F)(F)F)s1)c1ccc(-c2ccccn2)s1 [CBK062016] | 82.4433 |
| Cn1c2c(c3ccccc31)CCOC21CCNCC1 [CBK081142] | 83.4694 |
| O=C1CC(/C=C/c2ccccc2)Cc2[nH]c(=O)c(C(=O)O)cc21 (stereo not drawn) [CBK286933] | 96.1425 |
| CC(C)Nc1cncc(OCc2cccnc2)n1 [CBK115879] | 103.123 |
| Cc1nn(C)c(Cl)c1S(=O)(=O)Nc1cccnc1N1CCOCC1 [CBK062286] | 97.4008 |
| COc1ccc([C@H]2CN(C(=O)c3ccccc3)[C@@H]3CCN(Cc4ccccc4)C[C@H]23)cc1 [CBK285592] | 85.3679 |
| COc1ccc(C(=O)CSc2nnc(C(O)c3ccccc3)n2-c2ccccc2)cc1 (stereo not drawn) [CBK265104] | 109.219 |
| COc1ccc(CNC(=O)N(CCc2ccccc2)CC(C)(C)CN)cc1 [CBK000463C] | 56.8545 |
| CN(C)c1ncccc1CNC(=O)c1ccccn1 [CBK297774] | 94.9926 |
| CN(CC1CCCOC1)C(=O)c1ncsc1Nc1ccccc1 (stereo not drawn) [CBK304250] | 71.1705 |
| Cc1ccc(C)c(-c2csc3c(=O)[nH]cnc23)c1 [CBK288556] | 105.274 |
| O=c1/c(=C/c2ccncc2)sc2n1CN(c1cccc(F)c1)CN=2 [CBK264340] | 94.4639 |
| COc1ccc(/C(N)=N/OC(=O)C(C)Oc2ccc(Br)cc2)cc1OC (stereo not drawn) [CBK266807] | 98.4158 |
| CC(C)COc1ccc(-c2nn(-c3ccccc3)cc2CSC(=N)N)cc1 [CBK264278C] | 0.1325 |
| O=C(NCCOc1ccc(-c2ccc(F)cc2)nn1)c1ccc(Br)o1 [CBK294429] | 108.289 |
